The values below come from the supplement of paper PMC3334620.

Whole data set: some 33,000 sequences, median “E-score (-0.5 to 0.5)” near -0.021, cut for the highest 2% near 0.32. The list shows a part of the results.

The target in this test is T1, Zap1 (UniProt P47043).
T1 sequence: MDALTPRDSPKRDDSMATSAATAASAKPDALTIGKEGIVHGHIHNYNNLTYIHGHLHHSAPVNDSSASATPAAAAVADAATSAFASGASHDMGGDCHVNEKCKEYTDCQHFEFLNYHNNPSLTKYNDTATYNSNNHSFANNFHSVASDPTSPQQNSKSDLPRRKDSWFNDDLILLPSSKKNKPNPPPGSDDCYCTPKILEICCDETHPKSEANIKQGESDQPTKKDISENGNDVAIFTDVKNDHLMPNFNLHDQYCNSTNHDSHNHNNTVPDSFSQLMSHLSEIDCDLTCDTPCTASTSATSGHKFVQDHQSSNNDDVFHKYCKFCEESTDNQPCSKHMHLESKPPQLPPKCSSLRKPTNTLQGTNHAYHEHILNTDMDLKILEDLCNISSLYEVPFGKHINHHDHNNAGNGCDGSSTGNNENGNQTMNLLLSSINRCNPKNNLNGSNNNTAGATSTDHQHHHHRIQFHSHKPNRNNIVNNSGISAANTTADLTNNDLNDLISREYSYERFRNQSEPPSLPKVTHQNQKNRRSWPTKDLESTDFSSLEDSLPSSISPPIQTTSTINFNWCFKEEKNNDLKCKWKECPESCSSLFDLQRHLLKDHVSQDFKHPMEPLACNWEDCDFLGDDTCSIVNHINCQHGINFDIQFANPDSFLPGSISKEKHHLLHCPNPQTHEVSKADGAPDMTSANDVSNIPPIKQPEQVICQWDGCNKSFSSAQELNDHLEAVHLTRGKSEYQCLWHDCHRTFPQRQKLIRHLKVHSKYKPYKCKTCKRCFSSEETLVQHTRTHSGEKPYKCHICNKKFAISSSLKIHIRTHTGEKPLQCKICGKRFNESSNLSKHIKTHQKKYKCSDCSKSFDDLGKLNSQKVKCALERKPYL
The test is described as follows: PBM E-score (8-mer binding enrichment) (E-score (-0.5 to 0.5)); higher = stronger / more preferred TF binding; most listed sequences are background and not binding sites. As to conditions: protein concentration: 200 nM; construct: GST-full length. The method in brief:
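The E-score, a modified Wilcoxon-Mann-Whitney statistic, was computed by the Universal PBM Analysis Suite for every ungapped eight-base word pooled with its reverse complement. Scans behind it were normalised with masliner after bound GST-tagged yeast transcription factors were detected with fluorescent anti-GST. The proteins, at about 100-200 nM, had been applied to universal all-10-mer Agilent arrays made double-stranded by primer extension.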
As to GGCTTTTA, the “PBM E-score” value was -0.265.

CGGTACCG: the “PBM E-score” value came to 0.38.

Take ACGGTGGG: the “PBM E-score” value was found to be 0.0873.

Regarding ATCGTAAC, the “PBM E-score” value was 0.291.

On to GCTGGTCC, for which the “PBM E-score” value was -0.104.

As for AATATGTC, the “PBM E-score” value is -0.00754.

On to ACTTGTAA, for which the “PBM E-score” value turned out to be 0.0314.

Regarding AAATAAGC, the “PBM E-score” value was -0.0445.

On to CGCGAGGA, for which the “PBM E-score” value is -0.0975.

As for TGACAACA, the “PBM E-score” value is -0.0451.

In the case of ACTAGGCC, the “PBM E-score” value was -0.145.

In the case of AGTAAAGG, the “PBM E-score” value turned out to be 0.132.

As to AGAGGTGG, the “PBM E-score” value is -0.0484.

In the case of GAGCAGAC, the “PBM E-score” value was -0.131.

For the sequence CACGCGAG, the “PBM E-score” value was found to be 0.14.

For the sequence CACATGCC, the “PBM E-score” value was -0.165.

As for ACTCGCAT, the “PBM E-score” value is -0.0233.

Consider CTTGGGGA, for which the “PBM E-score” value was 0.0156.

For the sequence GTTAGATA, the “PBM E-score” value came out at 0.123.

CCGTAAGG: the “PBM E-score” value worked out at 0.149.

CGCCTACG: the “PBM E-score” value was -0.23.

Consider ACTGAATG, for which the “PBM E-score” value is -0.0608.

GGAACCTA: the “PBM E-score” value came to 0.146.

In the case of AATAATCT, the “PBM E-score” value came to 0.0517.

For the sequence ATTAGGCG, the “PBM E-score” value is -0.0264.

As to TGACCAAA, the “PBM E-score” value turned out to be 0.28.

With ATGAACGA, the “PBM E-score” value was -0.0648.

As for CACCTCAA, the “PBM E-score” value was 0.174.

For the sequence CCCTAGGG, the “PBM E-score” value was 0.41.

For the sequence ATGACATC, the “PBM E-score” value came out at 0.089.

For AAAGACCA, the “PBM E-score” value was -0.0435.

On to TTCAGGAA, for which the “PBM E-score” value is -0.0901.

As for CTTGCCAA, the “PBM E-score” value is 0.00969.

CAGCTCCC: the “PBM E-score” value is -0.42.

Consider GGTGACGA, for which the “PBM E-score” value came to 0.145.

Take GAACCTCC: the “PBM E-score” value is 0.038.

With ATTAAACA, the “PBM E-score” value turned out to be 0.114.

Take AATATCTA: the “PBM E-score” value was -0.239.

Turning to CACTACAC, the “PBM E-score” value was 0.0116.

Regarding TAACCGGA, the “PBM E-score” value worked out at 0.364.

In the case of CTTTGGCC, the “PBM E-score” value was -0.065.

Take CGTTTGGA: the “PBM E-score” value is 0.0241.

CGGGCATA: the “PBM E-score” value is -0.0176.

Take AAGCTGCG: the “PBM E-score” value is -0.191.

For the sequence TCAACCAA, the “PBM E-score” value was 0.118.

For the sequence AATGAGAC, the “PBM E-score” value was -0.0476.

In the case of TGATGTAA, the “PBM E-score” value is -0.049.

Turning to ACCTTGAT, the “PBM E-score” value worked out at 0.325.

As for GTGGTTCA, the “PBM E-score” value stood at 0.0364.

With GAGTAAAC, the “PBM E-score” value was 0.0886.

Take ATTACGTA: the “PBM E-score” value worked out at 0.0941.

On to AGCTCGGG, for which the “PBM E-score” value was -0.123.

In the case of GTTAGAAC, the “PBM E-score” value turned out to be 0.154.

As for AATCAGTA, the “PBM E-score” value is -0.0224.

On to GCGATGTA, for which the “PBM E-score” value is -0.00072.

With AATGCTTC, the “PBM E-score” value was -0.148.

For the sequence AGTACCAG, the “PBM E-score” value was found to be 0.173.

With GGACGTGA, the “PBM E-score” value is -0.201.

For ACCTCTGC, the “PBM E-score” value is -0.0418.

For AGTCTGTG, the “PBM E-score” value is -0.159.

Take AGCATTCC: the “PBM E-score” value was -0.228.

As to CAAACCTA, the “PBM E-score” value turned out to be 0.166.

For the sequence CTTTTTTA, the “PBM E-score” value worked out at 0.208.

Turning to CAACATAG, the “PBM E-score” value was -0.103.

As for ACCTACTA, the “PBM E-score” value is 0.113.

For the sequence TTACCGAA, the “PBM E-score” value amounted to 0.231.

With ATTATGCG, the “PBM E-score” value came to 0.154.

Turning to ATAGGATC, the “PBM E-score” value was -0.0267.

Consider TGATATCA, for which the “PBM E-score” value is -0.0863.

With GCTTACCA, the “PBM E-score” value came out at 0.0792.

For CTATCACA, the “PBM E-score” value was -0.024.

In the case of ACTGTGAG, the “PBM E-score” value was 0.119.

For the sequence AATGTGGG, the “PBM E-score” value is -0.049.

As for ACTGGCCC, the “PBM E-score” value is -0.0297.

Regarding CCAGGGGG, the “PBM E-score” value is -0.095.

As to CCGGGGTA, the “PBM E-score” value amounted to 0.212.

GCGAACAA: the “PBM E-score” value was 0.275.

Take GCGTCTCA: the “PBM E-score” value was -0.0752.

With AACAGGGC, the “PBM E-score” value was -0.0745.

Regarding ACCGCCCA, the “PBM E-score” value was 0.0109.

As for AAGAGACA, the “PBM E-score” value was -0.00205.

CTCAAATC: the “PBM E-score” value is -0.15.

CCACGGCC: the “PBM E-score” value is -0.0782.

In the case of AACCAAAG, the “PBM E-score” value stood at 0.26.

Take GATCCAGC: the “PBM E-score” value is -0.216.

On to AAAGAAAC, for which the “PBM E-score” value was 0.152.
